Source: PubChem BioAssay AID360 (National Center for Advancing Translational Sciences (NCATS), 2006)
Screen size: about 48,000 compounds; about 550 (1.1%) were called active. Inconclusive results (about 4%) are left out. Cut-off read from the data, not from the text of the source: active = potency below about 15 µM; inconclusive = mostly about 16 µM to 33 µM; inactive = weaker than that. The list shows a part of the results.

target: Lysosomal acid glucosylceramidase (Homo sapiens) (UniProt P04062); assay: Glucocerebrosidase; details: purified enzyme, resorufin glucoside fluorescence (screen aimed at inhibitors), 20 min;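 note: the screen sought inhibitors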
Sequence of UniProt P04062 (P04062 whole entry, looked up): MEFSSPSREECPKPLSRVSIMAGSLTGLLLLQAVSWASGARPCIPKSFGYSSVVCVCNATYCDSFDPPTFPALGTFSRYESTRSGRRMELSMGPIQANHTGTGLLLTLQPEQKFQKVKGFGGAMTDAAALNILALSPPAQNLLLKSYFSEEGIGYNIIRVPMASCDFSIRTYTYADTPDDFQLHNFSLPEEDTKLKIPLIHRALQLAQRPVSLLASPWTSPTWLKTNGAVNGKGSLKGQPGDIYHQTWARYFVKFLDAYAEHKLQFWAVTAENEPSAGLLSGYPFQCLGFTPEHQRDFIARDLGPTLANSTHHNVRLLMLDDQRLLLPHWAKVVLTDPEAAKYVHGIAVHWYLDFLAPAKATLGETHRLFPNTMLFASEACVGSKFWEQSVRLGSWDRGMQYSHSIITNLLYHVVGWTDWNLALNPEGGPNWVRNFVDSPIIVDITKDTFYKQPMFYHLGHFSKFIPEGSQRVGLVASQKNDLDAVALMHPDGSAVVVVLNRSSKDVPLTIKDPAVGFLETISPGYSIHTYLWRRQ
How it was run: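 Compounds titrated against 0.2 nM normal enzyme, 30 uM resorufin beta-D-glucopyranoside substrate, citrate/phosphate buffer with taurocholate and tween-20, pH 5.9. Reaction ran 20 min at room temperature; fluorescence (Ex 548/Em 600) gave AC50.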
Potency is the fitted concentration of half-maximal effect.

Potency, inactive:
OCCNc1cc(-n2nc(-c3ccccc3)cc2-c2ccccc2)ncn1 > 76.9 µM
O=C(CCSc1ccccc1)Nc1ncccn1 > 76.9 µM
CC(C)(C)N1C(=O)Cc2c1nc(N)c1c(N)nc(N3CCCCC3CO)c(C#N)c21 (centres undefined)
CCOC(=O)c1cc(NC(=O)c2ccoc2C)cc(C(=O)OCC)c1 > 76.9 µM
O=C(Nc1ccc(N2CCCCC2)c(Cl)c1)c1cccnc1 > 76.9 µM
C#CCOC(=O)CCC(=O)Nc1cc(OC)nc(OC)n1 > 76.9 µM
O=C1NC(=O)C2(CCC(C(=O)O)C2)N1 (centres undefined) > 76.9 µM
COCCOC(=O)c1cc(C(=O)c2cc(F)ccc2O)coc1=N > 76.9 µM
CCOC(=O)c1ccc(Cn2cnc3ccccc3c2=O)cc1 > 76.9 µM
CCOC(=O)c1ccc(S(=O)(=O)n2c(CN3CCCCC3)nc3ccccc32)cc1 > 76.9 µM
COc1cccc(CNC(=O)c2cc3oc4ccccc4c3n2C)c1OC > 76.9 µM
CCOC(=O)CCCCC(=O)c1[nH]c(=O)[nH]c1CSc1nc2ccccc2[nH]1 > 76.9 µM
Cc1cc(=O)[nH]c(SCc2cccc(Br)c2)n1 > 76.9 µM
COC(=O)c1ccccc1N(C)S(C)(=O)=O > 76.9 µM
COc1ccc(C2/C(=C(/O)c3ccc(Cl)cc3)C(=O)C(=O)N2CCN2CCOCC2)c(OC)c1 (centres undefined) > 76.9 µM
COCCCn1c(Cc2ccccc2)nnc1SCC(=O)N1CCCCC1 > 76.9 µM
Cc1ccc2cc(C#N)c(NCCNC(=O)C3CCC3)nc2c1C > 76.9 µM
COc1cc(-c2nc3ccccn3c2NCC2CCCO2)ccc1O (centres undefined)
COc1ccc(NC(=O)CN2CCN(S(=O)(=O)c3ccc(C(C)C)cc3)CC2)cc1OC > 76.9 µM
COc1cccc(NC(=O)N2CCN(c3ccc(C(F)(F)F)cn3)CC2)c1 > 76.9 µM
COCc1nc2ccccc2n1Cc1ccccc1Br > 76.9 µM
COc1cccc(OCc2nnc(SC)n2C)c1 > 76.9 µM
O=C(CN1C(=O)CCC1=O)Nc1ccc2c3c(cccc13)CC2 > 76.9 µM
O=C(CSc1nnnn1C1CCCCC1)N1CCc2ccccc21 > 76.9 µM
Cc1cnc(-c2nnc(N(C)C(=O)C3CCCO3)s2)cn1 (centres undefined) > 76.9 µM
Clc1ccc(CSc2nnc(-c3ccncc3)o2)c(Cl)c1 > 76.9 µM
Cc1ccc(C)n1-c1ncn[nH]1 > 76.9 µM
C/C(Cl)=C/Cn1c(SCCN2CCOCC2)nc2c1c(=O)[nH]c(=O)n2C > 76.9 µM
COC(=O)Nc1c(C)nn(Cc2ccccc2C)c1C > 76.9 µM
Cc1ccc(-c2cc(-c3cccc(F)c3)n[nH]2)c(O)c1 > 76.9 µM
CSc1ccccc1C(=O)NC1CC2CCC1C2 (centres undefined) > 76.9 µM
CCOc1ccc(CC(=O)Nc2c(C(N)=O)oc3ccccc23)cc1OCC > 76.9 µM
CCOC(=O)CC(=O)CSCC(=O)Nc1ccc(C)cc1 > 76.9 µM
CCCC(c1nnnn1Cc1ccco1)N1CCC(C(N)=O)CC1 (centres undefined) > 76.9 µM
CCOC(=O)c1[nH]cnc1C(=O)Nc1cccc(N)n1 > 76.9 µM
N#CC1=C(N)Oc2n[nH]c(-c3ccccc3)c2C1c1ccncc1 (centres undefined) > 76.9 µM
O=C(CSc1ncn[nH]1)Nc1nc(-c2ccccc2)ns1 > 76.9 µM
Cc1nnc(N(C(=O)c2cnccn2)c2ccccc2)s1 > 76.9 µM
C=CCc1ccccc1OCC(O)CN1CCN(C(=O)OCC)CC1 (centres undefined) > 76.9 µM
COc1ccccc1NS(=O)(=O)c1ccc(C)c(C(N)=O)c1 > 76.9 µM
COc1ccc(C2C(C(=O)N3CCN(c4ccccc4)CC3)c3ccccc3C(=O)N2C)cc1 (centres undefined) > 76.9 µM
Cc1cc(N2CCN(c3ccccn3)CC2)n2nc(C)nc2n1 > 76.9 µM
Cc1noc(C)c1C(=O)N1CCN(C(=O)c2sc3cc(Cl)ccc3c2Cl)CC1 > 76.9 µM
C=CCN(CC=C)S(=O)(=O)c1ccc2nc(NC(=O)C(C)C)sc2c1 > 76.9 µM
O=C(COC(=O)C1COc2ccccc2O1)NC(=O)NC1CCCC1 (centres undefined) > 76.9 µM
CC(=O)N1CCc2cc(Br)cc(S(=O)(=O)N3CCN(C(=O)c4ccco4)CC3)c21 > 76.9 µM
CCN(CC)S(=O)(=O)c1ccc(NC(=O)Cn2cnc3ccccc3c2=O)cc1 > 76.9 µM
CC(C)(C)Nc1cccccc1=O > 76.9 µM
Cc1cccc(CN2CCNC2=O)c1 > 76.9 µM
O=C(NCc1cn2ccccc2n1)c1ccccc1 > 76.9 µM
CCCCCCn1cnc2c(c1=O)c1nc3ccccc3nc1n2Cc1cccs1 > 76.9 µM
Cc1nnc2n1N=CC=C(c1ccccc1)S2 > 76.9 µM
Cc1nc(C)c(C(=O)Nc2ccccc2-c2ccccc2)o1 > 76.9 µM
COc1ccc(C2(O)CCN(C(=O)Cc3cccnc3)CC2)cc1 > 76.9 µM
COc1ccc(CCNC(=O)CCS(=O)(=O)c2cccc3nsnc23)cc1OC > 76.9 µM
CC(=O)Nc1ccccc1-c1ccc(C)o1 > 76.9 µM
Clc1ccc(CSc2nncn2-c2ccccn2)cc1 > 76.9 µM
Cc1ccc(NC(=O)c2c(C)nc(Nc3nc4ccccc4o3)nc2C)cc1 > 76.9 µM
O=C(Nc1ccc(Oc2ccccc2)cc1)c1ccco1 > 76.9 µM
O=C(Nc1ccc2c(c1)OCO2)c1cccc2c1C(=O)N(Cc1cccnc1)C2 > 76.9 µM
Cc1ccc(NC(=O)CSc2nnc(CCCCCNC(=O)OC(C)(C)C)o2)c(C)c1 > 76.9 µM
O=C(NCC1CCCO1)C1CCCN(Cc2cnn(-c3ccccc3)c2-n2cccc2)C1 (centres undefined) > 76.9 µM
CCOC(=O)CNC(=O)c1c(C)nn(-c2ccccc2)c1Cl > 76.9 µM
O=C(NCCN1CCOCC1)c1cccc(S(=O)(=O)N2CCCCCC2)c1
CC1CCCC(C)N1C(=O)CN1C(=O)C(C)(C)Oc2ccc(C(=O)NC3CCCC3)cc21 (centres undefined) > 76.9 µM
CCS(=O)(=O)n1nc(-c2ccco2)nc1SC > 76.9 µM
COc1ccccc1NC(=O)Cc1csc(N)n1 > 76.9 µM
COC(=O)CSc1nnc(-c2ccoc2C)n1-c1ccc(OC)cc1 > 76.9 µM
O=C(CSc1nnc(Cc2ccccc2)n1C1CCCCC1)N1CCOCC1 > 76.9 µM
Cc1noc(C)c1CSc1ncnc2sc(C)c(C)c12 > 76.9 µM
COc1ccc(CNC(=O)c2cc3c(=O)n4ccccc4nc3n(CC3CCCO3)c2=N)cc1 (centres undefined) > 76.9 µM
COCCn1c(C)cc(C(=O)CSc2nc(C)cc(C)c2C#N)c1C > 76.9 µM
O=C(C1CC1)N1CCc2cc(Br)cc(S(=O)(=O)NC3CCCCC3)c21 > 76.9 µM
COc1cc(NC(=O)C2CCCCN2)ccc1OCC(C)C (centres undefined) > 76.9 µM
Cc1sc2nc(SCc3nnc(-c4cccs4)o3)n(C3CCCC3)c(=O)c2c1C > 76.9 µM
CC(C)(C)c1ccc(-c2nnc(SCC(=O)O)n2N)cc1 > 76.9 µM
COc1cccc(NS(=O)(=O)c2cc(C)sc2C)c1 > 76.9 µM
Cn1nc(CC(=O)N2CCN(c3ccccc3)CC2)c2ccccc2c1=O > 76.9 µM
Nc1nc(-c2ccc(Cl)cc2)cc(C(F)(F)F)n1 > 76.9 µM
CCC(=Nc1ccc(Cc2ccncc2)cc1)c1c(O)n(C)c(=O)n(C)c1=O > 76.9 µM
O=C1CCCC2=C1C(c1ccccc1)CC(=O)N2c1ccccc1 (centres undefined) > 76.9 µM
COCCN(C(=O)C(C)C)c1nnc(-c2cccc(C)c2)s1 > 76.9 µM
O=C(COc1ccccc1)NC1CCN(Cc2ccccc2)CC1 > 76.9 µM
CCCSc1nnc(Sc2nnnn2-c2ccccc2)s1 > 76.9 µM
COc1cccc(OC)c1C(=O)N1CCN(S(=O)(=O)c2ccccc2)CC1 > 76.9 µM
CC1(C)N=C(/C=N/O)C=[N+]1[O-] > 76.9 µM
CC1(C)CC2(CCCN3C(=O)CSC32)CCS1 (centres undefined) > 76.9 µM
O=C(c1cccs1)N1CCOCC1 > 76.9 µM
Cc1c(NS(=O)(=O)c2ccc3c(c2)n(C)c(=O)n3C)c(=O)n(-c2ccccc2)n1C > 76.9 µM
Cc1ccc(C)c(/C(O)=C2/C(=O)C(=O)N(CCN3CCOCC3)C2c2ccco2)c1 (centres undefined) > 76.9 µM
Cc1ccc(-c2nn(C)c(=O)c3ccccc23)cc1S(=O)(=O)N1CCOCC1 > 76.9 µM
CN(C)S(=O)(=O)NCc1ccc2c(c1)OCO2 > 76.9 µM
Cc1c(C#N)c2ccccc2n1CC(=O)O > 76.9 µM
CCCN(CCC)S(=O)(=O)c1ccc(NS(C)(=O)=O)cc1 > 76.9 µM
